No constants are given. Whether binding was seen depends on the method and setting. Binding seen in cells or lysates may run through a third protein. Some entries that bind do so weakly or less than the wild type.
Tests used:
[1] = target: Bax (human (endogenous in A549)) (UniProt Q07812); test: cross-linking; crude mitochondria from doxycycline-induced A549-Capsid or A549-Luciferase cells, with or without staurosporine for 6 h, cross-linked with 10 mM BMH for 30 min at room temperature; immunoblots with antibodies to Bax and capsid
[2] = target: T1, Bak (human (endogenous in A549)) (UniProt Q16611); test: co-IP; lysates of A549 cells infected with RV (M33), staurosporine for 0 to 6 h from 42 h; IP with antibodies to capsid, Bax or Bak overnight at 4°C, immunoblot; lysis in 1% CHAPS or 1% NP-40 buffer with 150 mM NaCl
T1 sequence: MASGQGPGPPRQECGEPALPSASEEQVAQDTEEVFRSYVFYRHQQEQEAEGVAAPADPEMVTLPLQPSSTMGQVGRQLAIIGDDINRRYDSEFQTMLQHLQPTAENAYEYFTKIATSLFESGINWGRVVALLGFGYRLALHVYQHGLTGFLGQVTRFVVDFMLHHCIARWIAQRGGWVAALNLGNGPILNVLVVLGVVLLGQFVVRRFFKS

Sequences of proteins named here, by UniProt entry; tags and fusion partners are left off.
UniProt Q07812: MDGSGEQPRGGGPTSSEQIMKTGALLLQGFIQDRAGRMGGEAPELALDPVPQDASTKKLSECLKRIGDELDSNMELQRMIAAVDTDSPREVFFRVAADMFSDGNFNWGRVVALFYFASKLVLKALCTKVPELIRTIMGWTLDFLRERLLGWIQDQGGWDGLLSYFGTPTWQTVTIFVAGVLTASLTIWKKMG

[3] = target: Bax (human (endogenous in A549)) (UniProt Q07812); test: as above
[4] = target: Bax (human (endogenous in A549)) (UniProt Q07812); test: co-IP; lysates of A549 cells transiently expressing capsid constructs; IP with rabbit anti-Bax under non-denaturing conditions, immunoblot with goat anti-RV and mouse anti-Bax

B1: Rubella virus capsid protein (stably transduced A549-Capsid cells, doxycycline-induced) (protein, UniProt P08563 1-300)
chain: MASTTPITMEDLQKALEAQSRALRAGLAAGASQSRRPRPPRQRDSSTSGDDSGRDSGGPRRRRGNRGRGQRKDWSRAPPPPEERQESRSQTPAPKPSRAPPQQPQPPRMQTGRGGSAPRPELGPPTNPFQAAVARGLRPPLHDPDTEAPTEACVTSWLWSEGEGAVFYRVDLHFTNLGTPPLDEDGRWDPALMYNPCGPEPPAHVVRAYNQPAGDVRGVWGKGERTYAEQDFRVGGTRWHRLLRMPVRGLDGDTAPLPPHTTERIETRSARHPWRIRFGAPQAFLAGLLLAAVAVGTARA
With B1 as the binder, how does the binding [1] read?
The binding was “binds”.

B2: Rubella virus capsid protein (in cells infected with the M33 strain) (protein, UniProt P08563 1-300)
chain: MASTTPITMEDLQKALEAQSRALRAGLAAGASQSRRPRPPRQRDSSTSGDDSGRDSGGPRRRRGNRGRGQRKDWSRAPPPPEERQESRSQTPAPKPSRAPPQQPQPPRMQTGRGGSAPRPELGPPTNPFQAAVARGLRPPLHDPDTEAPTEACVTSWLWSEGEGAVFYRVDLHFTNLGTPPLDEDGRWDPALMYNPCGPEPPAHVVRAYNQPAGDVRGVWGKGERTYAEQDFRVGGTRWHRLLRMPVRGLDGDTAPLPPHTTERIETRSARHPWRIRFGAPQAFLAGLLLAAVAVGTARA
Which results are given for B2?
binding [2]: no binding; binding [3]: binds

B3: Rubella virus capsid protein (pCMV5-capsid, transiently transfected) (protein, UniProt P08563 1-300)
chain: MASTTPITMEDLQKALEAQSRALRAGLAAGASQSRRPRPPRQRDSSTSGDDSGRDSGGPRRRRGNRGRGQRKDWSRAPPPPEERQESRSQTPAPKPSRAPPQQPQPPRMQTGRGGSAPRPELGPPTNPFQAAVARGLRPPLHDPDTEAPTEACVTSWLWSEGEGAVFYRVDLHFTNLGTPPLDEDGRWDPALMYNPCGPEPPAHVVRAYNQPAGDVRGVWGKGERTYAEQDFRVGGTRWHRLLRMPVRGLDGDTAPLPPHTTERIETRSARHPWRIRFGAPQAFLAGLLLAAVAVGTARA
For B3, which binding [4] is on record?
Its binding is “binds”.

Source: article PMC3040668
